Inconclusive means that the source gave no clear call. Such entries were picked first, then a sample of the others. Potencies beside an inconclusive call are fits to weak or partial responses and may not hold up. Calls of active or inactive are those of the source. Calls come from the whole dose curve; as a rule, active = well fitted activation curve with a large enough effect in the signal ratio, with a control signal flat (not every such curve was filed as active); inconclusive = small, poorly fitted or top-dose-only effect, or effect the other way, or a change in a side signal; inactive = flat fitted curve, though single readings scatter; the % refers to the signal ratio.
Test: qHTS Assay for Identification of Small Molecule Agonists for Hypoxia Response Element Signaling Pathway (AID 914); for activation: top concentration of the series differs between compounds; % of control where 0% means no effect
Details: ME-180 (cervical carcinoma) HRE-bla reporter, beta-lactamase ratio, CoCl2, 17 h; activation: hits give high values
Outline: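 HRE-bla ME-180 cells with beta-lactamase reporter under hypoxia response element, compounds with EC50 CoCl2 for 17 hours at 37 C. CCF4 substrate, 460nm/530nm emission ratio gave %Activity; AC50 from titration series.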
Potency is the fitted concentration of half-maximal effect; tags give direction and shape of the fitted curve or compound fluorescence and quenching.

Compound	activation	Potency
CC(C)=CCC/C(C)=C/CO/N=C1/[C@H]2O[C@@H]2[C@@H](O)[C@H]2[C@H]1CCn1c(=O)n(-c3ccccc3)c(=O)n12	inconclusive: -8.78%	
CCCCOC(=O)Nc1ccc(S(=O)(=O)Nc2nc(C)cc(C)n2)cc1	inactive: -6.31%	
CCOc1cccc(-c2nnc3sc(COc4ccccc4)nn23)c1		inconclusive: 5.01 µM [inhibitor, full curve]
CC(=O)N1CC=C2C(C#N)=C(N)C(C#N)(C#N)[C@H](c3ccoc3)[C@H]2C1	inactive: -26.3%	
O=C(C1CCCCC1)N1CCCn2c1nc1ccccc12	inactive: 6.44%	
O=C(O)Cc1c(O)ccc2ccccc12	inconclusive: 3.32%	
CCCOc1ccccc1C(=O)NCCCC(=O)O		inconclusive: 10 µM [activator, partial curve]
O=S(=O)(O)CCCc1cccc2ccccc12	inactive: -2.01%	
COc1ccc2c(c1)[n+]([O-])c(/C(C)=N/NC(N)=S)c(C)[n+]2[O-]		inconclusive: 3.98 µM [inhibitor, partial curve]
CC(C)OCCCNc1ncnc2c1cnn2-c1ccccc1	inactive: -23.4%	
O=C(CC1(O)CCCCC1)OC1CCCC1	inconclusive: 2.68%	
COc1ccc(-c2cn3ccsc3n2)cc1	inconclusive: 21.4%	
NS(=O)(=O)c1ccc(NC2(C(=O)O)CCCC2)cc1	inconclusive: 8.42%	
COc1ccc(CCNC(=O)c2ccc(=O)[nH]n2)cc1OC	inconclusive: 23.2%	
O=C1C(=O)c2ccccc2C(O)=C1Cc1ccccc1		inconclusive: 3.16 µM [inhibitor, single point]
COc1ccc(C(=O)N2CCC3(CCN(C)CC3)CC2)cc1	inactive: 5.39%	
NNC(=O)[C@@H](O)[C@H](O)C(=O)NN		inconclusive: 1 µM [inhibitor, single point]
c1cc(-c2nnc3sc(C4CCCCC4)nn23)ccn1	inconclusive: -31.8%	
O=C(O)C(Cc1c[nH]c2ccccc12)NS(=O)(=O)c1cccc2nsnc12 (stereo not drawn)	inactive: -7.91%	
Cc1cc2ncn(CC(=O)O)c2cc1C	inconclusive: 10.1%	
COC(=O)C1=C(C)N=C2SC(C)C(=O)N2C1c1ccc(C(=O)OC)cc1 (stereo not drawn)		inconclusive: 0.501 µM [inhibitor, single point]
CCCCn1c(=O)n(C)c(=O)c2c3c(sc21)COC(C)(C)C3		inconclusive: 10 µM [inhibitor, single point]
c1csc(-c2nn3c(C4CCCCC4)nnc3s2)c1	inconclusive: 3.09%	
CC(C)NC(=O)N1CCCC2(CCN(C(=O)c3cc(C(F)(F)F)cc(C(F)(F)F)c3)CC2)C1	inactive: -9.04%	
O=C1OCCN1/N=C\c1ccc([N+](=O)[O-])o1		inconclusive: 7.94 µM [inhibitor, partial curve, poor fit]
OCCCN=C1CCCCC1	inconclusive: -11.2%	
COc1cc(S(=O)(=O)N2CCN(C)CC2)c(OC)cc1Br	inconclusive: -35.5%	
N#Cc1nc(COc2ccccc2)oc1N1CCCC1	inactive: -0.614%	
